Measurements taken from the supplement of paper PMC7826260.
This is one part of the list. The data describe in vitro nicking of single-stranded DNA by Rep domains for 1 h at 37 °C with 3 µM enzyme; only the middle of the 90-letter strands is printed. The score is log2 (uncut reads / reads without enzyme); uncut sequences lie near 0, cut ones below; no hit call is given. Shares of all reads are compared, so uncut sequences can rise above 0 when many others are cut.

Key:
Test in all cases: uncleaved DNA left, log2 of reads against the no-enzyme library (log2 ratio); higher = less cleavage (more negative = more Rep cleavage of the k-mer); sequences stand for … in CTCGTCCG…ACCGGAGA
[1] = tested on: T1, Rep nickase domain of Muscovy duck circovirus
T1 sequence (residues 1-111 of Rep, tag left off): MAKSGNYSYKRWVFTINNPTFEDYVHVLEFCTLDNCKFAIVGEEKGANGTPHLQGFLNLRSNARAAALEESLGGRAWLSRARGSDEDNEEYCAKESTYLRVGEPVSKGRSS
Protocol: (§1)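 A pool of 90-nt single-stranded DNAs with seven random bases just before the constant AC of the nick site (name = the seven bases) was cut by 3 µM recombinant His6-SUMO-tagged Rep nickase domain (300 nM DNA, 50 mM HEPES pH 8.0, 50 mM NaCl, 1 mM MnCl2, 1 h, 37 °C, three replicates). Uncut DNA was amplified and sequenced.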

[2] = tested on: T2, Rep nickase domain of banana bunchy top virus
T2 sequence (residues 1-94 of Rep, tag left off): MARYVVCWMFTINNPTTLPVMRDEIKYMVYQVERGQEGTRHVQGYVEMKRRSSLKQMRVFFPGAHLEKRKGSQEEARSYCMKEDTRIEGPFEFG
Protocol: as §1

[3] = tested on: T3, Rep nickase domain of cabbage leaf curl virus
T3 sequence (residues 1-116 of Rep, tag left off): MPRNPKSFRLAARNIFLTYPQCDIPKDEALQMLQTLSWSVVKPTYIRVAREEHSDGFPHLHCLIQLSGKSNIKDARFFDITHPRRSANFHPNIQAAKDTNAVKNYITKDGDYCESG
Protocol: as §1

[4] = tested on: T4, Rep nickase domain of chickpea chlorotic dwarf virus
T4 sequence (residues 1-124 of Rep, tag left off): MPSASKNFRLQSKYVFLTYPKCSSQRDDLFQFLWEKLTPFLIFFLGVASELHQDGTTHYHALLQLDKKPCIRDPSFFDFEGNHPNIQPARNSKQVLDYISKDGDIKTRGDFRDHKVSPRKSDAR
Protocol: as §1

[5] = tested on: T5, Rep nickase domain of faba bean necrotic yellows virus
T5 sequence (residues 1-98 of Rep, tag left off): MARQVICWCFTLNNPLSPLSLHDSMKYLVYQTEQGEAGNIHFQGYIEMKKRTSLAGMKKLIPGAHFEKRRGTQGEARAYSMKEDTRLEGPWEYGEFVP
Protocol: as §1

[6] = tested on: T6, Rep nickase domain of maize striate mosaic virus
T6 sequence (residues 1-117 of Rep, tag left off): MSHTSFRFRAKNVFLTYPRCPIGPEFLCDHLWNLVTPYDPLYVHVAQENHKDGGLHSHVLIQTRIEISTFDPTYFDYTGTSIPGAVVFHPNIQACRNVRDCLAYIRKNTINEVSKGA
Protocol: as §1

[7] = tested on: T7, Rep nickase domain of porcine circovirus 2
T7 sequence (residues 2-116 of Rep, tag left off): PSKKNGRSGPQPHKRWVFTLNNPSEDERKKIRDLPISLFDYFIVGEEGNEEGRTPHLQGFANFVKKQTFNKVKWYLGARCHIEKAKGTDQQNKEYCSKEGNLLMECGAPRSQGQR
Protocol: as §1

[8] = tested on: T8, Rep nickase domain of tomato yellow leaf curl virus
T8 sequence (residues 1-136 of Rep, tag left off): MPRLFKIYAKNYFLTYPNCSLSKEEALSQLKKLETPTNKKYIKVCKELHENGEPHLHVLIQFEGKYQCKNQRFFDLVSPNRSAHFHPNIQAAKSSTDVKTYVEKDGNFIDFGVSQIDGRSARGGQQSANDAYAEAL
Protocol: as §1

[9] = tested on: T9, Rep nickase domain of wheat dwarf virus
T9 sequence (residues 1-137 of Rep, tag left off): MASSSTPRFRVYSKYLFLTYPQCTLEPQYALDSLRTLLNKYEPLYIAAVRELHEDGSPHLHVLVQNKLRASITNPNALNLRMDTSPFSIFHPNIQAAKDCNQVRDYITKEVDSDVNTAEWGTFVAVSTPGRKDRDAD
Protocol: as §1

Sequence | uncleaved DNA left (log2) [1] | uncleaved DNA left (log2) [2] | uncleaved DNA left (log2) [3] | uncleaved DNA left (log2) [4] | uncleaved DNA left (log2) [5] | uncleaved DNA left (log2) [6] | uncleaved DNA left (log2) [7] | uncleaved DNA left (log2) [8] | uncleaved DNA left (log2) [9]
GGCCGGC | 0.0392 | 0.0918 | 0.513 | 1.08 | 0.0834 | 1.52 | 0.155 | -0.0867 | 0.0685
TAAGGTT | -0.0609 | 0.108 | -2.7 | -1.76 | 0.0597 | 1.6 | 0.0982 | -0.106 | -0.459
TCACAGC | 0.0359 | 0.0341 | -0.282 | -0.653 | 0.00985 | -1.05 | 0.19 | 0.0216 | -0.0167
TAACGGA | 0.0296 | -0.0302 | -0.107 | -0.128 | 0.0961 | -0.0395 | -0.0497 | -0.147 | -0.0484
GAACATC | 0.047 | 0.113 | 0.743 | 1.67 | -0.0577 | 2.01 | 0.214 | -0.0249 | 0.208
GTCGTGT | -0.00957 | -0.133 | 0.227 | 0.543 | -0.0781 | 1.39 | -0.00646 | -0.0551 | -0.0959
TGGTAAA | -0.000177 | 0.0518 | 0.386 | 0.518 | -0.0258 | 0.843 | 0.167 | 0.0513 | 0.0839
CACCGCG | -0.0666 | -0.0255 | -0.893 | -0.093 | -0.0551 | -0.675 | 0.0529 | -0.0879 | -0.253
TATATGT | -0.192 | -0.348 | -0.21 | -1.01 | -0.0348 | -0.636 | -0.81 | -0.039 | -0.0355
CGCCGTA | -0.267 | -0.113 | -0.196 | -0.481 | -0.201 | -0.347 | -0.129 | -0.171 | -0.124
TTACTGG | 0.158 | 0.0444 | 0.377 | 0.549 | 0.134 | 1.03 | 0.285 | 0.0674 | 0.0359
CCACCCC | -0.137 | -0.0423 | 0.0309 | -0.525 | 0.0401 | -0.277 | -0.832 | -0.144 | -0.0754
TCGCTCT | 0.0832 | 0.0634 | 0.13 | -1.57 | -0.0261 | -0.396 | -0.279 | 0.109 | -0.025
GGCCTAT | -0.127 | -0.0472 | 0.504 | 1.31 | -0.0055 | 1.91 | -0.0586 | 0.038 | 0.113
GTATCTA | 0.0459 | 0.0377 | 0.303 | 0.756 | -0.116 | 1.65 | -0.0436 | -0.00804 | 0.0816
ATGATGC | 0.1 | 0.0821 | -0.423 | -0.39 | 0.0275 | -1.08 | 0.24 | 0.137 | 0.0868
ACCTATG | 0.196 | 0.119 | -0.656 | -0.246 | 0.205 | -0.901 | 0.229 | 0.124 | -0.046
TTGTCTC | -0.17 | -0.215 | 0.0752 | -0.099 | -0.168 | -0.287 | -0.442 | -0.088 | -0.165
GGAGTCG | 0.182 | 0.203 | -0.31 | 0.0885 | 0.162 | -0.248 | 0.35 | 0.126 | 0.109
CCTGTTG | 0.0212 | -0.138 | -0.481 | -0.632 | -0.0715 | -1.26 | -0.00655 | -0.0414 | -0.121
GGACCAC | -0.0154 | 0.0762 | 0.764 | 1.51 | 0.0414 | 2.07 | 0.0412 | 0.064 | 0.248
GGATACC | 0.134 | 0.17 | 0.27 | 1.01 | 0.0506 | 0.957 | 0.231 | 0.0283 | 0.221
GCACCCA | -0.0939 | -0.00189 | -0.0379 | -0.328 | -0.0221 | 0.149 | -0.259 | -0.00609 | 0.0769
GGTTCCG | 0.0398 | -0.00564 | -0.123 | -0.116 | -0.0322 | -0.395 | 0.166 | -0.0278 | 0.0048
TAGCGAA | 0.0605 | 0.0538 | -0.336 | -0.446 | 0.0473 | -0.849 | -0.159 | 0.033 | 0.00597
ACACATT | 0.0779 | 0.0924 | -0.351 | -1.8 | 0.128 | -0.645 | -0.12 | -0.0701 | 0.00528
CTATTTA | -0.08 | 0.0368 | -0.235 | -1.78 | 0.0528 | -0.82 | -0.186 | 0.0386 | 0.0152
CGCTCGA | -0.159 | -0.135 | -0.425 | -0.571 | -0.0317 | -1.03 | -0.182 | -0.186 | -0.189
AAGCGGG | 0.101 | 0.0576 | -0.0918 | 0.223 | -0.0892 | -0.219 | 0.142 | 0.0186 | -0.00936
GTCTAGC | 0.0452 | 0.0294 | 0.21 | 0.707 | 0.105 | 1.29 | 0.127 | -0.0784 | -0.0108
